From PubChem BioAssay AID504332 (National Center for Advancing Translational Sciences (NCATS), 2011)
Screen size: about 350,000 compounds; about 31,000 (8.9%) were called active. The shares of active, inactive and inconclusive entries below differ from those in the screen. Calls follow the shape of the dose curve; as a rule, active = well fitted inhibition curve with a large enough effect; inconclusive = small, poorly fitted or top-dose-only effect; inactive = no such curve, though single readings can be large or run the other way. Where the call is inconclusive, the potency comes from a doubtful curve fit.

target: Histone-lysine N-methyltransferase EHMT2 (Homo sapiens) (UniProt Q96KQ7); test: qHTS Assay for Inhibitors of Histone Lysine Methyltransferase G9a; details: G9a H3K9 monomethylation, AlphaScreen, 2 h; activity, negative = inhibition: at 59 µM (top of the series) unless noted; also: nearly all actives have a fitted effect of over 75% in size
Chain of UniProt Q96KQ7 (Q96KQ7 whole entry, looked up): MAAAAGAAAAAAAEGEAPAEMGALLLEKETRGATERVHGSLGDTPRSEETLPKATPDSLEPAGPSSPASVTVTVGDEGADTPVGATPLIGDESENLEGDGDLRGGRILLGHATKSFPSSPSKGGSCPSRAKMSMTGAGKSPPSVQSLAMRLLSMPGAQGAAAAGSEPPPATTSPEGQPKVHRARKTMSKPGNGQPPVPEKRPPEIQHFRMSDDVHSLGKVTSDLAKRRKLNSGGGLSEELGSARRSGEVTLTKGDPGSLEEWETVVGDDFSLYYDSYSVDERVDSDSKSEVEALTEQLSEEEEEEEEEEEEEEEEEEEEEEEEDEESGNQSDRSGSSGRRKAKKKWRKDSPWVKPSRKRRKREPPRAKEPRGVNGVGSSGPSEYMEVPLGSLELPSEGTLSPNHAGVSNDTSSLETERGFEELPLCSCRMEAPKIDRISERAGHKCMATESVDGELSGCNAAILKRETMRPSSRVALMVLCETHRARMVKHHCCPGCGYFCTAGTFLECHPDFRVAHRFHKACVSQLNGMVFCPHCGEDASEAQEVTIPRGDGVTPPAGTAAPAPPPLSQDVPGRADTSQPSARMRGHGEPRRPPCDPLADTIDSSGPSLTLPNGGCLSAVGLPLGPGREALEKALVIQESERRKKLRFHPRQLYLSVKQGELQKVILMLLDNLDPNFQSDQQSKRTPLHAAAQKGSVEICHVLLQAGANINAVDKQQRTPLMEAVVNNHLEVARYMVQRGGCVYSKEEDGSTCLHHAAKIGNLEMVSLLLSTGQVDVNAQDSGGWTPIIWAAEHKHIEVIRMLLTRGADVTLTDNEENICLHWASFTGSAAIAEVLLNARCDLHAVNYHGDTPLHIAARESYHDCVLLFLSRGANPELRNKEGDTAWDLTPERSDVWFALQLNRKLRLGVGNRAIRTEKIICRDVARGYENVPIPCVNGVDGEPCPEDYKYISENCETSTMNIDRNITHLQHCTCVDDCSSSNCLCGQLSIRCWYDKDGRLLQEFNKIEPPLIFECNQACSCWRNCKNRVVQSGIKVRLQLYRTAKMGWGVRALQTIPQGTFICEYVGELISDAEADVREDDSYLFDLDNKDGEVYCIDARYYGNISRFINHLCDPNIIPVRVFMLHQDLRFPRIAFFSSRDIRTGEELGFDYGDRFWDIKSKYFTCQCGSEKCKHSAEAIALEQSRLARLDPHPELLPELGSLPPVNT
Procedure, shortened: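 Chemiluminescent proximity detection of H3K9 monomethylation, read after 10 min bead incubation in the dark. Reaction: 20 nM G9a, 500 nM biotin-H3K9 peptide, 20 uM SAM cofactor, 2 h, room temperature, following 15 min enzyme-compound preincubation.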
% is scaled to controls: 0 for no effect and ±100 for the full control effect; potency is read from the fitted curve at half-maximal effect; tags tell the direction and shape of the fitted curve.

| SMILES | Potency | activity, negative = inhibition |
| --- | --- | --- |
| O=C(CCC(=O)c1ccc(F)cc1)Nc1ccc(Cl)cc1 | inconclusive: 31.6 µM [inhibitor, single point] |  |
| C=CCn1c(SCC(=O)NCc2ccco2)nnc1C1CCCCC1 |  | inactive: -50.5% [at 102 µM] |
| O=C(Oc1ccccc1/C=C\C(=O)c1cc2ccccc2o1)c1ccccc1 | inconclusive: 0.562 µM [inhibitor, full curve, poor fit] |  |
| CN(C(=O)COC(=O)Cn1cnc2c1c(=O)n(C)c(=O)n2C)C1(C#N)CCCCC1 |  | inactive: 24% [at 12.7 µM] |
| Cc1ccc(S(=O)(=O)Nc2nc(C)c(C)s2)cc1 | active: 22.4 µM |  |
| CCOc1cc(C2NC(=O)NC(C)=C2C(=O)OCc2ccccc2)ccc1O (stereo not given) | inconclusive: 70.8 µM [inhibitor, single point] |  |
| O=C(CSc1n[nH]c(-c2ccccc2Cl)n1)NCc1ccc(F)cc1 |  | inactive: 5.49% |
| CCOC(=O)Cn1c(=O)oc2cc(S(=O)(=O)N3CCn4c3nc3ccccc34)ccc21 | inconclusive: 31.6 µM [inhibitor, partial curve, poor fit] |  |
| Cc1sc2ncnc(SCC(=O)c3ccc(O)cc3O)c2c1C |  | inconclusive: -70.4% [inhibitor] |
| CCc1ccc2[nH]c(=O)c(C(c3nnnn3CCOC)N3CCN(c4ccc(F)cc4)CC3)cc2c1 (stereo not given) |  | inconclusive: -111% [inhibitor] |
| Cc1cc(SCC(=O)N/N=C/c2ccc(O)c(O)c2O)c(C)cc1Br | inconclusive: 3.55 µM [inhibitor, partial curve, poor fit] |  |
| CC(=O)c1cccc(Oc2cc(NN3CCCCC3)c([N+](=O)[O-])cc2[N+](=O)[O-])c1 | active: 50.1 µM |  |
| O=C1CC(N2CCN(c3ccccc3)CC2)C(=O)N1c1ccc(Cl)cc1 (stereo not given) |  | inactive: -0.325% [at 0.501 µM] |
| CO/N=C\Cc1oc(=O)c(NC(=O)c2ccccc2)cc1C(=O)OC | active: 31.6 µM |  |
| COCCn1c(SCc2nc3cc(OC)c(OC)cc3c(=O)[nH]2)nnc1-c1ccncc1 | inconclusive: 50.1 µM [inhibitor, partial curve, poor fit] |  |
| COc1ccc(-c2nc3c(c(SC)n2)Cc2c(CO)cnc(C)c2O3)cc1 |  | inactive: -33.8% |
| N#CCCN(C(=O)COC(=O)c1ccc2c(=O)n3c(nc2c1)CCC3)c1ccccc1 |  | inactive: 30.5% [at 102 µM] |
| Cc1ccc(C(=O)OCCN(C)Cc2ccccc2)cc1 |  | inactive: -4.57% [at 102 µM] |

| SMILES | Potency | activity, negative = inhibition |
| --- | --- | --- |
| CCCCn1c(N)c(N(CC(C)C)C(=O)c2ccc(-n3c(C)ccc3C)cc2)c(=O)[nH]c1=O | active: 56.2 µM |  |
| CCn1c(=O)c2cc(C(=O)NCCCN3CCN(C)CC3)sc2c2ccccc21 |  | inactive: -44.8% |
| CCN(CC(=O)NCc1ccc(F)cc1)CC(=O)Nc1cc(S(=O)(=O)N(C)C)ccc1C | inconclusive: 3.55 µM [inhibitor, partial curve, poor fit] |  |
| O=C(NCCCN1CCN(c2cccc(Cl)c2)CC1)c1sc2ncccc2c1-n1cccc1 |  | inactive: -44.7% |
| Cc1[nH]c2ccccc2c1SCC(=O)O | inconclusive: 25.1 µM [inhibitor, single point] |  |
| OC[C@@H](O)[C@H](O)C(/C=N/Nc1ccccc1)=N\Nc1ccccc1 | inconclusive: 1.78 µM [inhibitor, partial curve, poor fit] |  |
| COc1ccc2[nH]c3c(NCCN(C(C)C)C(C)C)ncnc3c2c1 | inconclusive: 89.1 µM [inhibitor, single point] |  |
| CC(C)NCCOCCOc1ccc(Cl)cc1Br | inconclusive: 22.4 µM [inhibitor, single point] |  |
| Cc1c(NC(=O)OCCNC(=O)COc2ccc(Cl)cc2Cl)sc(=S)n1C | inconclusive: 79.4 µM [inhibitor, single point] |  |
| CC(=O)/C(=N\Nc1ccc(Cl)cc1)Sc1nnc(-c2ccccc2)n1-c1ccccc1 | active: 6.31 µM |  |
| CC(=O)NC(Cc1ccccc1)C(=O)NC1CCN(C(=O)c2cnccn2)CC1 (stereo not given) | inconclusive: 89.1 µM [inhibitor, single point] |  |
| OCCCNCc1ccc(N(c2ccccc2)c2ccccc2)cc1 | active: 12.6 µM |  |
| Cc1ccc(/C=C/C(=O)OCC(=O)NCc2ccc(Cl)cc2)o1 |  | inactive: -2.38% [at 2.33 µM] |
| OC1(c2ccc(OC(F)F)cc2)CSC(=Nc2cccnc2)N1C1CC1 (stereo not given) | inconclusive: 31.6 µM [inhibitor, single point] |  |
| C/C(=N\NC(=O)Cc1c(F)cccc1Cl)c1cccnc1 | active: 50.1 µM |  |
| Cc1cc(=O)oc2cc(OCC(=O)N/N=C/c3ccccc3O)ccc12 |  | inactive: 2.8% [at 102 µM] |
| N#Cc1c(N)sc(=S)c2c1CCN(Cc1ccccc1)C2 |  | inconclusive: -148% [inhibitor] |
